Data reported in a collection of fitness landscapes (doi:10.1126/science.1257360).
Some of the results follow.

B1: PhoQ; a variant is named by its letters at X, in order, P23837 (parent)
chain: MKKLLRLFFPLSLRVRFLLATAAVVLVLSLAYGMVALIGYSVSFDKTTFRLLRGESNLFYTLAKWENNKLHVELPENIDKQSPTMTLIYDENGQLLWAQRDVPWLMKMIQPDWLKSNGFHEIEADVNDTSLLLSGDHSIQQQLQEVREDDDDAEMTHSVAVNVYPATSRMPKLTIVVVDTIPVELKSSYMVWSWFIYVLSANLLLVIPLLWVAAWWSLRPIEALAKEVRELEEHNRELLNPATTRELTSLVRNLNRLLKSERERYDKYRTTLTDLTHSLKTPLXXLQXXLRSLRSEKMSVSDAEPVMLEQISRISQQIGYYLHRASMRGGTLLSRELHPVAPLLDNLTSALNKVYQRKGVNISLDISPEISFVGEQNDFVEVMGNVLDNACKYCLEFVEISARQTDEHLYIVVEDDGPGIPLSKREVIFDRGQRVDTLRPGQGVGLAVAREITEQYEGKIVAGESMLGGARMEVIFGRQHSAPKDE

Variants of: B1
Assay: enrichment ratio after two sorts for PhoP signalling (ratio (wild type AVST 3.29)); higher = more functional
Details: with PhoP (E. coli)

Variant	enrichment ratio
VYWD	≤ 0.25
VACW	≤ 0.25
NEIW	≤ 0.25
TNYV	0.521
FRVL	≤ 0.25
IHSH	≤ 0.25
IINV	≤ 0.25
VAEW	≤ 0.25
YVNI	≤ 0.25
KIFA	≤ 0.25
NNMH	≤ 0.25
VDWP	≤ 0.25
EFMS	≤ 0.25
MYTD	≤ 0.25
KCRV	≤ 0.25
WLRL	≤ 0.25
SAKT	≤ 0.25
IVRR	≤ 0.25
HWLW	≤ 0.25
MGLI	14.4
MYKC	≤ 0.25
EQLY	≤ 0.25
WPVC	≤ 0.25
INMT	8.21
AMSG	10.7

Variant	enrichment ratio
KIPG	≤ 0.25
KCHH	≤ 0.25
THIY	≤ 0.25
HCMS	≤ 0.25
HTAL	≤ 0.25
DALN	≤ 0.25
FPWN	≤ 0.25
LIHY	≤ 0.25
CKIH	≤ 0.25
GIHL	≤ 0.25
FGHW	≤ 0.25
MINN	≤ 0.25
MQTH	≤ 0.25
TRMV	3.28
KSPT	≤ 0.25
YMMR	≤ 0.25
ITEN	≤ 0.25
KGML	≤ 0.25
PRCI	≤ 0.25
GCFQ	≤ 0.25
GGLP	≤ 0.25
SDWA	≤ 0.25
MIIV	≤ 0.25
ITER	≤ 0.25
KICM	≤ 0.25

Variant	enrichment ratio
VSDQ	≤ 0.25
PTQS	≤ 0.25
NWLF	≤ 0.25
FINK	≤ 0.25
MFDR	≤ 0.25
DHDN	≤ 0.25
IYEY	≤ 0.25
CFTS	≤ 0.25
LCNG	≤ 0.25
GSVE	≤ 0.25
DIAF	≤ 0.25
FHDA	≤ 0.25
VYFR	≤ 0.25
QKCY	≤ 0.25
TWHR	≤ 0.25
KKAY	≤ 0.25
MACH	≤ 0.25
IWWH	≤ 0.25
GPPY	≤ 0.25
MQRF	≤ 0.25
EFNY	≤ 0.25
HWQD	≤ 0.25
DLCS	≤ 0.25
NCVR	≤ 0.25
YNHK	≤ 0.25

Variant	enrichment ratio
ADFI	≤ 0.25
YDLH	≤ 0.25
RIGF	≤ 0.25
STPD	≤ 0.25
ICMN	3.55
CIAG	≤ 0.25
FSMG	4.8
MYAM	≤ 0.25
SVEK	≤ 0.25
AGFC	≤ 0.25
VHVS	≤ 0.25
TNSD	1.64
SGLE	4.04
SKWF	≤ 0.25
DADP	≤ 0.25
DHQQ	≤ 0.25
SSSS	11.1
ETRT	≤ 0.25
ASTN	6.56
GSDQ	≤ 0.25
GRHC	≤ 0.25
TKDI	≤ 0.25
YTAI	≤ 0.25
NWCG	≤ 0.25
YNCV	0.516

Variant	enrichment ratio
HGSK	0.39
AQCC	32.6
YHSA	≤ 0.25
VGPC	≤ 0.25
RYMQ	5.92
GSMW	≤ 0.25
TQNV	14.2
WRLQ	≤ 0.25
QTCW	≤ 0.25
ANAN	4.98
EPKR	≤ 0.25
KDRD	≤ 0.25
QNSK	≤ 0.25
LYSD	≤ 0.25
GTVK	≤ 0.25
QDPI	≤ 0.25
WQPK	≤ 0.25
YKKP	≤ 0.25
VEYP	≤ 0.25
MSEK	≤ 0.25
NHAE	≤ 0.25
NMDN	≤ 0.25
EHSV	≤ 0.25
WHCV	≤ 0.25
EKRC	≤ 0.25

Variant	enrichment ratio
VSTI	2.9
TRAL	1.23
IQME	≤ 0.25
GGCS	13.1
DHSN	≤ 0.25
PCLS	≤ 0.25
VLEF	≤ 0.25
MSGI	17.5
NEHN	≤ 0.25
RWFG	≤ 0.25
NPHE	≤ 0.25
PDRL	≤ 0.25
FMSL	≤ 0.25
KAEN	≤ 0.25
IPIP	≤ 0.25
EECI	≤ 0.25
RLQA	≤ 0.25
TMLW	≤ 0.25
TMKH	≤ 0.25
HSYC	≤ 0.25
YWQV	≤ 0.25
HWTV	≤ 0.25
QCFP	≤ 0.25
DNNR	≤ 0.25
QGPL	≤ 0.25

Variant	enrichment ratio
SHAT	≤ 0.25
EGHH	≤ 0.25
NLEL	≤ 0.25
MPWY	≤ 0.25
FCRC	≤ 0.25
DSET	≤ 0.25
PGAW	≤ 0.25
VCHG	≤ 0.25
FCLR	≤ 0.25
VINM	≤ 0.25
ALRD	≤ 0.25
PWFF	≤ 0.25
QREF	≤ 0.25
WSTQ	≤ 0.25
VKGQ	≤ 0.25
NLSS	≤ 0.25
PSVW	≤ 0.25
WDNG	≤ 0.25
DTSM	≤ 0.25
SSRA	≤ 0.25
FMHK	≤ 0.25
KGFH	≤ 0.25
SRGY	≤ 0.25
WGCV	≤ 0.25
AFPQ	≤ 0.25

Variant	enrichment ratio
NLGR	≤ 0.25
LKEN	≤ 0.25
KACF	≤ 0.25
QVVV	≤ 0.25
WITH	≤ 0.25
ANQH	≤ 0.25
RIRD	≤ 0.25
IRSQ	≤ 0.25
FIAR	≤ 0.25
LTCP	≤ 0.25
DATI	≤ 0.25
HMMV	≤ 0.25
YCYD	≤ 0.25
YKLV	0.568
PGYR	≤ 0.25
WYKV	≤ 0.25
AEHC	≤ 0.25
FILH	3.33
LAQA	≤ 0.25
FNSV	0.755
